# From the supplement of paper PMC8728848
# The list shows a part of the results.
# B1: HPAIIITrx (Helix pomatia), Q1KM18 (protein)
# chain: MLFVTIISLGLLAIVHGQCALKTIAFSAAIDREQTFDANQVVIYDIVITNHGNAYDNSTGLFTAPVDGMYSFQLNLLTIKEKEGWLELVHNGQLKVSVYAKQDSTYDSSSNSVIIKMKEGDRVNVRAHKKSGLFGRDDELYNTFSGHFLSGL
# Columns and labels:
# Experiment in all cases: glycan array binding signal (z-score within array); higher = stronger binding
# Conditions in all cases: glycan notation: IUPAC condensed, linker removed
# [1] = biological target: Neu5Ac(a2-6)Gal(b1-4)GlcNAc(b1-2)Man(a1-6)[Man(a1-3)]Man(b1-4)GlcNAc(b1-4)GlcNAc
# Method in brief: (§1)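 The Consortium for Functional Glycomics database supplied 3228 glycan arrays, of which those lacking an available protein sequence were dropped. The binding signal, a within-array Z-score, was averaged across arrays of the same protein sequence and across linkers. Negative scores can be read as non-binding.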
# [2] = biological target: Neu5Ac(a2-6)Gal(b1-4)GlcNAc(b1-2)[Neu5Ac(a2-6)Gal(b1-4)GlcNAc(b1-4)]Man(a1-3)[GlcNAc(b1-4)][Neu5Ac(a2-6)Gal(b1-4)GlcNAc(b1-2)[Neu5Ac(a2-6)Gal(b1-4)GlcNAc(b1-6)]Man(a1-6)]Man(b1-4)GlcNAc(b1-4)GlcNAc
# Method in brief: as §1
# [3] = biological target: Neu5Ac(a2-6)Gal(b1-4)GlcNAc(b1-2)[Neu5Ac(a2-6)Gal(b1-4)GlcNAc(b1-4)]Man(a1-3)[GlcNAc(b1-4)][Neu5Ac(a2-6)Gal(b1-4)GlcNAc(b1-4)Man(a1-6)]Man(b1-4)GlcNAc(b1-4)GlcNAc
# Method in brief: as §1
# [4] = biological target: Neu5Ac(a2-6)Gal(b1-4)GlcNAc(b1-2)[Neu5Ac(a2-6)Gal(b1-4)GlcNAc(b1-6)]Man(a1-6)[Neu5Ac(a2-6)Gal(b1-4)GlcNAc(b1-2)Man(a1-3)][GlcNAc(b1-4)]Man(b1-4)GlcNAc(b1-4)GlcNAc
# Method in brief: as §1
# [5] = biological target: Neu5Ac(a2-6)Gal(b1-4)GlcNAc(b1-3)Gal(b1-3)GlcNAc
# Method in brief: as §1
# [6] = biological target: Neu5Ac(a2-6)Gal(b1-4)GlcNAc(b1-3)Gal(b1-4)GlcNAc
# Method in brief: as §1
# [7] = biological target: Neu5Ac(a2-6)Gal(b1-4)GlcNAc(b1-3)Gal(b1-4)GlcNAc(b1-2)Man(a1-3)[Neu5Ac(a2-6)Gal(b1-4)GlcNAc(b1-3)Gal(b1-4)GlcNAc(b1-2)Man(a1-6)]GalNAc
# Method in brief: as §1
# [8] = biological target: Neu5Ac(a2-6)Gal(b1-4)GlcNAc(b1-3)Gal(b1-4)GlcNAc(b1-3)Gal(b1-4)GlcNAc
# Method in brief: as §1
# [9] = biological target: Neu5Ac(a2-6)Gal(b1-4)GlcNAc(b1-3)Gal(b1-4)GlcNAc(b1-3)Gal(b1-4)GlcNAc(b1-2)Man(a1-3)[Neu5Ac(a2-6)Gal(b1-4)GlcNAc(b1-3)Gal(b1-4)GlcNAc(b1-3)Gal(b1-4)GlcNAc(b1-2)Man(a1-6)]GalNAc
# Method in brief: as §1
# [10] = biological target: Neu5Ac(a2-6)Gal(b1-4)GlcNAc(b1-3)Gal(b1-4)GlcNAc(b1-3)GalNAc
# Method in brief: as §1
# [11] = biological target: Neu5Ac(a2-6)Gal(b1-4)GlcNAc(b1-3)Gal(b1-4)GlcNAc(b1-3)[Neu5Ac(a2-6)Gal(b1-4)GlcNAc(b1-3)Gal(b1-4)GlcNAc(b1-6)]GalNAc
# Method in brief: as §1
# [12] = biological target: Neu5Ac(a2-6)Gal(b1-4)GlcNAc(b1-3)Gal(b1-4)GlcNAc(b1-6)[Gal(b1-3)]GalNAc
# Method in brief: as §1
# [13] = biological target: Neu5Ac(a2-6)Gal(b1-4)GlcNAc(b1-3)Gal(b1-4)[Fuc(a1-3)]GlcNAc(b1-3)Gal(b1-4)[Fuc(a1-3)]GlcNAc
# Method in brief: as §1
# [14] = biological target: Neu5Ac(a2-6)Gal(b1-4)GlcNAc(b1-3)GalNAc
# Method in brief: as §1
# [15] = biological target: Neu5Ac(a2-6)Gal(b1-4)GlcNAc(b1-3)[Neu5Ac(a2-6)Gal(b1-4)GlcNAc(b1-6)]GalNAc
# Method in brief: as §1
# [16] = biological target: Neu5Ac(a2-6)Gal(b1-4)GlcNAc(b1-6)GalNAc
# Method in brief: as §1
# [17] = biological target: Neu5Ac(a2-6)Gal(b1-4)GlcNAc(b1-6)[Gal(b1-3)GlcNAc(b1-3)]Gal(b1-4)Glc
# Method in brief: as §1
# [18] = biological target: Neu5Ac(a2-6)Gal(b1-4)GlcNAc(b1-6)[Gal(b1-3)]GalNAc
# Method in brief: as §1
# [19] = biological target: Neu5Ac(a2-6)Gal(b1-4)GlcNAc6S
# Method in brief: as §1
# [20] = biological target: Neu5Ac(a2-6)GalNAc
# Method in brief: as §1
# [21] = biological target: Neu5Ac(a2-6)GalNAc(b1-4)GlcNAc
# Method in brief: as §1
# [22] = biological target: Neu5Ac(a2-6)GalNAc(b1-4)GlcNAc6S
# Method in brief: as §1
# [23] = biological target: Neu5Ac(a2-6)GlcNAc(b1-4)GlcNAc
# Method in brief: as §1
# [24] = biological target: Neu5Ac(a2-6)GlcNAc(b1-4)GlcNAc(b1-4)GlcNAc
# Method in brief: as §1
# [25] = biological target: Neu5Ac(a2-8)Neu5Ac
# Method in brief: as §1
# [26] = biological target: Neu5Ac(a2-8)Neu5Ac(a2-3)Gal(b1-3)GalNAc(b1-4)[Neu5Ac(a2-3)]Gal(b1-4)Glc
# Method in brief: as §1
# [27] = biological target: Neu5Ac(a2-8)Neu5Ac(a2-3)Gal(b1-3)GalNAc(b1-4)[Neu5Ac(a2-8)Neu5Ac(a2-3)]Gal(b1-4)Glc
# Method in brief: as §1
# [28] = biological target: Neu5Ac(a2-8)Neu5Ac(a2-3)Gal(b1-4)Glc
# Method in brief: as §1
# [29] = biological target: Neu5Ac(a2-8)Neu5Ac(a2-3)Gal(b1-4)GlcNAc
# Method in brief: as §1
# [30] = biological target: Neu5Ac(a2-8)Neu5Ac(a2-3)[Gal(b1-3)GalNAc(b1-4)]Gal(b1-4)Glc
# Method in brief: as §1
# [31] = biological target: Neu5Ac(a2-8)Neu5Ac(a2-3)[GalNAc(b1-4)]Gal(b1-4)Glc
# Method in brief: as §1
# [32] = biological target: Neu5Ac(a2-8)Neu5Ac(a2-8)Neu5Ac
# Method in brief: as §1
# [33] = biological target: Neu5Ac(a2-8)Neu5Ac(a2-8)Neu5Ac(a2-3)Gal(b1-4)Glc
# Method in brief: as §1
# [34] = biological target: Neu5Ac(a2-8)Neu5Ac(a2-8)Neu5Ac(a2-3)[Gal(b1-3)GalNAc(b1-4)]Gal(b1-4)Glc
# Method in brief: as §1
# [35] = biological target: Neu5Ac(a2-8)Neu5Ac(a2-8)Neu5Ac(a2-3)[GalNAc(b1-4)]Gal(b1-4)Glc
# Method in brief: as §1
# [36] = biological target: Neu5Ac(a2-8)Neu5Ac(a2-8)Neu5Ac(a2-8)Neu5Ac(a2-3)[GalNAc(b1-4)]Gal(b1-4)Glc
# Method in brief: as §1
# [37] = biological target: Neu5Ac(a2-8)Neu5Gc(a2-3)Gal(b1-4)GlcNAc
# Method in brief: as §1
# [38] = biological target: Neu5Ac(b2-6)Gal(b1-4)GlcNAc
# Method in brief: as §1
# [39] = biological target: Neu5Ac(b2-6)GalNAc
# Method in brief: as §1
# [40] = biological target: Neu5Ac9Ac(a2-3)Gal(b1-3)GlcNAc
# Method in brief: as §1
# [41] = biological target: Neu5Ac9Ac(a2-3)Gal(b1-4)GlcNAc
# Method in brief: as §1
# [42] = biological target: Neu5Ac9Ac(a2-6)Gal(b1-4)GlcNAc
# Method in brief: as §1
# [43] = biological target: Neu5Gc(a2-3)Gal(b1-3)GlcNAc
# Method in brief: as §1
# [44] = biological target: Neu5Gc(a2-3)Gal(b1-3)[Fuc(a1-4)]GlcNAc
# Method in brief: as §1
# [45] = biological target: Neu5Gc(a2-3)Gal(b1-4)Glc
# Method in brief: as §1
# [46] = biological target: Neu5Gc(a2-3)Gal(b1-4)GlcNAc
# Method in brief: as §1
# [47] = biological target: Neu5Gc(a2-3)Gal(b1-4)GlcNAc(b1-3)Gal(b1-4)GlcNAc(b1-2)Man(a1-3)[Neu5Gc(a2-3)Gal(b1-4)GlcNAc(b1-3)Gal(b1-4)GlcNAc(b1-2)Man(a1-6)]Man(b1-4)GlcNAc(b1-4)GlcNAc
# Method in brief: as §1
# [48] = biological target: Neu5Gc(a2-3)Gal(b1-4)[Fuc(a1-3)]GlcNAc
# Method in brief: as §1
# [49] = biological target: Neu5Gc(a2-6)Gal(b1-4)GlcNAc
# Method in brief: as §1
# [50] = biological target: Neu5Gc(a2-6)GalNAc
# Method in brief: as §1
# [51] = biological target: Neu5Gc(a2-8)Neu5Ac(a2-3)Gal(b1-4)GlcNAc
# Method in brief: as §1
# [52] = biological target: Neu5Gc(a2-8)Neu5Gc(a2-3)Gal(b1-4)GlcNAc
# Method in brief: as §1
# [53] = biological target: Neu5Gc(a2-8)Neu5Gc(a2-3)Gal(b1-4)GlcNAc(b1-3)Gal(b1-4)GlcNAc
# Method in brief: as §1
# [54] = biological target: Neu5Gc(a2-8)Neu5Gc(a2-6)Gal(b1-4)GlcNAc
# Method in brief: as §1
# [55] = biological target: Neu5Gc(b2-6)Gal(b1-4)GlcNAc
# Method in brief: as §1
binder,measurement,setting,value
B1,glycan array binding signal (z-score),[1],-0.31
same,glycan array binding signal (z-score),[2],-0.455
same,glycan array binding signal (z-score),[3],-0.345
same,glycan array binding signal (z-score),[4],-0.416
same,glycan array binding signal (z-score),[5],-0.351
same,glycan array binding signal (z-score),[6],-0.395
same,glycan array binding signal (z-score),[7],-0.254
same,glycan array binding signal (z-score),[8],-0.514
same,glycan array binding signal (z-score),[9],1.22
same,glycan array binding signal (z-score),[10],-0.346
same,glycan array binding signal (z-score),[11],0.816
same,glycan array binding signal (z-score),[12],-0.292
same,glycan array binding signal (z-score),[13],-0.392
same,glycan array binding signal (z-score),[14],0.163
same,glycan array binding signal (z-score),[15],-0.408
same,glycan array binding signal (z-score),[16],0.573
same,glycan array binding signal (z-score),[17],-0.39
same,glycan array binding signal (z-score),[18],-0.3
same,glycan array binding signal (z-score),[19],-0.262
same,glycan array binding signal (z-score),[20],-0.361
same,glycan array binding signal (z-score),[21],-0.4
same,glycan array binding signal (z-score),[22],-0.278
same,glycan array binding signal (z-score),[23],-0.447
same,glycan array binding signal (z-score),[24],-0.323
same,glycan array binding signal (z-score),[25],-0.078
same,glycan array binding signal (z-score),[26],-0.396
same,glycan array binding signal (z-score),[27],-0.38
same,glycan array binding signal (z-score),[28],-0.321
same,glycan array binding signal (z-score),[29],-0.454
same,glycan array binding signal (z-score),[30],-0.374
same,glycan array binding signal (z-score),[31],-0.378
same,glycan array binding signal (z-score),[32],-0.315
same,glycan array binding signal (z-score),[33],-0.401
same,glycan array binding signal (z-score),[34],-0.263
same,glycan array binding signal (z-score),[35],-0.1
same,glycan array binding signal (z-score),[36],-0.251
same,glycan array binding signal (z-score),[37],-0.37
same,glycan array binding signal (z-score),[38],-0.507
same,glycan array binding signal (z-score),[39],-0.371
same,glycan array binding signal (z-score),[40],0.224
same,glycan array binding signal (z-score),[41],-0.301
same,glycan array binding signal (z-score),[42],-0.157
same,glycan array binding signal (z-score),[43],-0.347
same,glycan array binding signal (z-score),[44],-0.296
same,glycan array binding signal (z-score),[45],-0.237
same,glycan array binding signal (z-score),[46],-0.502
same,glycan array binding signal (z-score),[47],-0.297
same,glycan array binding signal (z-score),[48],-0.214
same,glycan array binding signal (z-score),[49],-0.386
same,glycan array binding signal (z-score),[50],-0.327
same,glycan array binding signal (z-score),[51],-0.425
same,glycan array binding signal (z-score),[52],-0.459
same,glycan array binding signal (z-score),[53],-0.466
same,glycan array binding signal (z-score),[54],-0.356
same,glycan array binding signal (z-score),[55],-0.262
